# Article PMC5515408
# This is one part of the list. At the low end of the ranking the order means little.
# Target: MAX:MAX (p21) (UniProt P61244-2)
# Test: protein-binding microarray (anti-MAX antibody)
# Conditions: PBM: 15 mM Tris-HCl pH 7.5, 100 mM KCl, 0.075% NP40, 7.5 mM beta-mercaptoethanol, 375 ng/ul BSA, 8 ng/ul poly(dA-dT):(dA-dT), 550 ng complex, 60 min, room …; high values mean tight binding; double strand, one strand shown; sequences stand for … in CCGGC…TTAATAGCTAAGATTACTATATCGACG
row,Sequence,binding signal (log2 normalized fluorescence)
1,TGACTAACTGTA,-0.781
2,TGAACTGGCGTA,-0.86
3,TGAACCGGAGTA,-0.466
4,TGAATGGTTGTA,0.487
5,TGACCCGTGGTA,2.38
6,TGACATCTTGTA,0.0419
7,TGAGACGTGGTC,1.44
8,TTACACGTAGCA,1.46
9,TGAAGCGCTGTA,0.0579
10,TGAGCCAGAGTA,-1.02
11,TGATGGCTGGTA,0.013
12,TGAAGGGGCGTA,0.0876
13,TGACGCGAGGTA,1.3
14,TGCCAAGTGGTA,0.694
15,TGAGAAGACGTA,-0.51
16,TGATCACTGGTA,-0.372
17,TGAGAACCGGTA,-0.907
18,TGAATAGAGGTA,-0.905
19,TGAGACGACGTA,-0.705
20,TGGCAAGTGGTC,0.794
21,TGAAGGGGGGTA,1.76
22,TGAGCCAACGTA,-0.742
23,TGATTGGTCGTA,-0.853
24,TGACACGAGCTA,2.46
25,TGAGAGCGAGTA,-0.606

row,Sequence,binding signal (log2 normalized fluorescence)
1,TGACCATACGTA,0.577
2,TGATACTTTGTA,-0.964
3,TGAAACAACGTA,0.158
4,TGAACTCTAGTA,-0.97
5,TGACACGATGTA,2.21
6,TGACGCGTCGCA,0.257
7,TGACTAAGAGTA,-1.02
8,TGAGATATGGTA,-0.828
9,GAACATGTGGTA,3.2
10,TGATCCTGAGTA,-1.02
11,TGAAAGCAGGTA,-0.157
12,TGAGAGTTTGTA,-1.03
13,TGAAAGCCGGTA,-1.24
14,TGAGGGATGGTA,0.0855
15,TGACACGTGGAG,2.99
16,TGATATACCGTA,-0.669
17,ATTACTAGATGA,0.503
18,TGAGACTCGGTA,-0.816
19,TGACCCAAGGTA,-0.0673
20,TGACTATCAGTA,-0.801
21,TGACACAAGGGA,1.23
22,TGACTTGCTGTA,0.424
23,GGCCACGTAGTA,2.08
24,TGATTTTTGGTA,-1.29
25,TGACATGTGGTT,2.98

row,Sequence,binding signal (log2 normalized fluorescence)
1,TGCCAGGTGGTG,3.19
2,TGATCTAAGGTA,-0.764
3,TGATTAGTGGTA,-0.573
4,TGAGTTACAGTA,-0.754
5,TGATCATTCGTA,-0.551
6,TCACATGTGGTA,3.23
7,TGATTAGTAGTA,-1.09
8,TGATACCGCGTA,-0.369
9,TTTCACTTGGTA,-0.636
10,TGATAGCTGGTA,-1.18
11,TGAGATGCTGTA,-0.422
12,TGAGAAATTGTA,-1.27
13,TGAGTGCGCGTA,0.259
14,TGAAGGCCAGTA,-0.68
15,TGAACTTTGGTA,-0.987
16,TGCGACGTGGTA,2.27
17,TGATAGTGTGTA,0.414
18,TGATTCTAAGTA,-1.27
19,TGACGCACCGTA,0.636
20,TGATCGATAGTA,-1.05
21,TTACAGGTGTTA,2.02
22,TGACTACGAGTA,-0.00923
23,TGAGCTAGAGTA,-1.22
24,TGATACTTAGTA,-1.02
25,TGACAGGCAGTA,0.262
